Experimental data as given in patent publication US20130041138A1, “ANTIBODIES THAT BIND TO PSCA PROTEINS FOR DIAGNOSIS OF CANCER” (priority 2003, published 2013).

Assays:
[1] = system: HPAC human pancreatic cancer xenografts; experiment: Subcutaneous HPAC pancreatic cancer xenograft; type: in vivo, ICR SCID mice; conditions: 500 mg/mouse i.p. two times a week, 8 doses, from day of injection; t test
Description: (§1) FIG. 24. Human PSCA MAbs Inhibit the Growth of Pancreatic Cancer Xenografts in SCID mice/Human HPAC. Pancreatic cancer cells (2×10^6/mouse) were injected subcutaneously into immunodeficient ICR SCID mice (Taconic Farm, Germantown, N.Y.). The mice were randomized into groups (n=10 animals/group) and treatment with the indicated human PSCA monoclonal antibody initiated the same day. Antibodies (500 mg/mouse) were delivered intraperitoneally two times a week for a total of 8 doses. […] Statistical analyses were performed using at test (two-sided, α=0.05).
as §1, with “In another experiment,” for “FIG. 24.”, “HPAC pancreatic” for “PSCA MAbs Inhibit the Growth of Pancreatic Cancer Xenografts in SCID mice/Human HPAC. Pancreatic”, “α=0.05) (FIG. 24).” for “α=0.05).”

[2] = biological target: T1, cell surface PSCA on PSCA-expressing cells (endogenous or recombinant) (Homo sapiens, UniProt O43653); experiment: PSCA human MAb screening by FACS; type: binding
T1 construct: host or cells: PSCA-expressing cells (endogenous or recombinant)
Description: FIGS. 9A and 9B. Screening for human PSCA antibodies by FACS. Antibody concentration from supernatants was determined by ELISA. 50 ul/well of (neat) was added to 96-well FACS plates and serially diluted. PSCA-expressing cells were added (endogenous or recombinant, 50,000 cells/well) and the mixture incubated at 4° C. for two hours. Following incubation, the cells were washed with FACS Buffer and further incubated with 100 ul of detection antibody (anti-hIgG-PE) for 45 minutes at 4° C. At the end of incubation, the cells were washed with FACS Buffer, fixed with formaldehyde and analyzed using FACScan. Data were analyzed using CellQuest Pro software. Solid histograms represent data from negative control cells and open histograms indicate data from PSCA-positive cells.
Primary hybridoma screening for MAbs to PSCA was performed by FACS. The protocol was as follows: 50 ul/well of hybridoma supernatant (neat) or purified antibodies (in serial dilutions) were added to 96-well FACS plates and mixed with PSCA-expressing cells (endogenous or recombinant, 50,000 cells/well). The mixture was incubated at 4° C. for two hours. […] At the end of incubation, the cells were washed with FACS Buffer, fixed with Formaldehyde and analyzed using FACScan. Data were analyzed using CellQuest Pro software. […]

B1: Ha1-1.16: fully human gamma 1 anti-PSCA monoclonal antibody, PSCA-GST immunization; ATCC PTA-6698; sequences FIG. 2J-2K (antibody)
VH: QVQLQQSGPGLVKPSQTLSLTCAISGDSVSSNSAAWNWIRQSPSRGLEWLGRTYYRSKWYNGYAVSVKSRMTINPDTSKNQFSLQLNSVTPEDTAVYYCARERLGELYGMDVWGQGTTVTVSSASTKGPSVFPLAPSSKST
VL: QLTQSPDSLAVSLGERATINCKSSQNILYRSSKKNHLVWYQQKPGQPPKLLIYWASTRESGVPARFSGSGSGTDFTLTISTLQAEDVAVYYCQQYYSTPPTFGQGTRLEIKRTVAAPSVFIFPPSDEQLKSGTASVVCLLNNFYPREAKVQWKVDNALQSG
[1]
  inhibition of subcutaneous tumor growth: significantly inhibited the growth
[2]
  react and bind with cell surface or immobilized PSCA: react and bind with cell surface or immobilized PSCA
[2]; PSCA expressed in prostate cancer xenograft cells
  binding to endogenous cell surface PSCA: bind endogenous cell surface PSCA
